The values that follow come from paper PMC7940485.

Amino acid sequences for entries named in this document (tags omitted). A change or cut given only in a name is not applied to a line headed by its entry. Residues count along the entry.
UniProt Q5TA45: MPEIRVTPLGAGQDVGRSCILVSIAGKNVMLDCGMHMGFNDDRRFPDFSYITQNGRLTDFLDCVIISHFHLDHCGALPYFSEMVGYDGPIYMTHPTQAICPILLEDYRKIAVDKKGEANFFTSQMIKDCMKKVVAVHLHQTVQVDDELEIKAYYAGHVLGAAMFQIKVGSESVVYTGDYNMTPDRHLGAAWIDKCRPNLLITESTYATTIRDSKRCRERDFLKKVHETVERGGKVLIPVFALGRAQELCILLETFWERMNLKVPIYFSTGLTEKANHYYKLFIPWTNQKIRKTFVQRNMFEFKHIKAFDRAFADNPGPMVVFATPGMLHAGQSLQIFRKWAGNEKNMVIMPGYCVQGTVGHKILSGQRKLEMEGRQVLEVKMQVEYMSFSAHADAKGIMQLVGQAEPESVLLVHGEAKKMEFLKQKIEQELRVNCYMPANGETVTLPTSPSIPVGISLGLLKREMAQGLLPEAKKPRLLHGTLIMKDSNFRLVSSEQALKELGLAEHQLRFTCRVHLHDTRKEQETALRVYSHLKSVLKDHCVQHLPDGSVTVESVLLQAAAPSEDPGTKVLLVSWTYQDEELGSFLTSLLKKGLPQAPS
GFP-INTS11 (1-493): residues 1-493 of Q5TA45
GFP-INTS11 (1-450): residues 1-450 of Q5TA45
GFP-INTS11 (1-390): residues 1-390 of Q5TA45
UniProt Q9NV88: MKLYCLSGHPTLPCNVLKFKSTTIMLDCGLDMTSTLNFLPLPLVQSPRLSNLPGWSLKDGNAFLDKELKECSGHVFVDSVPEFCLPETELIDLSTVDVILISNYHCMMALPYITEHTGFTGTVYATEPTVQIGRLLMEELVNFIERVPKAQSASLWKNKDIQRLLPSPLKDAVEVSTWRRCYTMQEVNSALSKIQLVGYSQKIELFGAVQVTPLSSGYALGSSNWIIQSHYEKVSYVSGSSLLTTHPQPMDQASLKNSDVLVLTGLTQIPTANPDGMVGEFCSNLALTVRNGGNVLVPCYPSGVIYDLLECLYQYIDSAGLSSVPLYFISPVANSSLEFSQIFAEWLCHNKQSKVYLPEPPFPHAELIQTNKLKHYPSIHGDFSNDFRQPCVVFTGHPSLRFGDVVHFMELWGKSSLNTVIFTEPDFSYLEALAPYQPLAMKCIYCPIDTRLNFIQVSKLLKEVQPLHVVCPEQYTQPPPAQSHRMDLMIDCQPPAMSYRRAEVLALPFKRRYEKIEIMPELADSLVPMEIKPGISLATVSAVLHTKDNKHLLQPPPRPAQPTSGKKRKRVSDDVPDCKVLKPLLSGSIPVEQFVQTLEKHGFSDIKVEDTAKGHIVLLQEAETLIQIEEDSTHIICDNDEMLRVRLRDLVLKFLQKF
UniProt Q96HW7: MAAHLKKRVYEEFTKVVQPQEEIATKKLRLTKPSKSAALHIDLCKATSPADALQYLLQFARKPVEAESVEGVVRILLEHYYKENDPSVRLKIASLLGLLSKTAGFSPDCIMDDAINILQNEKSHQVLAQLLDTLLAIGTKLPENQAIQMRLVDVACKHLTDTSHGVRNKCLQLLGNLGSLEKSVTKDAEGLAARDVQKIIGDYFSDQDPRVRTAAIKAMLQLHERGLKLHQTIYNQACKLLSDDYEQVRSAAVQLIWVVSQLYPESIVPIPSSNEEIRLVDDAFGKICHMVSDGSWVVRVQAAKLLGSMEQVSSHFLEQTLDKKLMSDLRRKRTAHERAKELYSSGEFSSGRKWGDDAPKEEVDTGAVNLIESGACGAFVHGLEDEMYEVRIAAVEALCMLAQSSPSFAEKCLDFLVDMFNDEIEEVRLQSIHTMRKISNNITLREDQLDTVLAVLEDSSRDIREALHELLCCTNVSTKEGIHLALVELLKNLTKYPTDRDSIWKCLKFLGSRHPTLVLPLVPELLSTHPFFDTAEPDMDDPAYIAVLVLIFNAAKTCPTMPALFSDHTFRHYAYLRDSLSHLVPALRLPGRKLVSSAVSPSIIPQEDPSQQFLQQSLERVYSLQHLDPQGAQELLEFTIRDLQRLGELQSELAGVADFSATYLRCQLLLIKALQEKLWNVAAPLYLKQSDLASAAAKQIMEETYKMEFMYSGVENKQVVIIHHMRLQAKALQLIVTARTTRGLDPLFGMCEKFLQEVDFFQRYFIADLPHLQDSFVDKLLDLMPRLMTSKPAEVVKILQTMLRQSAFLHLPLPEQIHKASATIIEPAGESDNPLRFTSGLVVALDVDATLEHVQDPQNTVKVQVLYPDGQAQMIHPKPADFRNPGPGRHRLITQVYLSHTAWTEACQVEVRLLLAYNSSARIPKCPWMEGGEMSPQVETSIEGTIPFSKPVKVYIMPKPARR

These are yes or no findings as the source states them, for the method shown. In cells and extracts the contact can be indirect. Some binding calls cover weakened binding; strength is not graded here. For some of these results: Where a sequence is shown, tags or fusion partners need not be part of it.

Assay [1] deals with T1, GFP-WDR73 full length (stably expressed in podocytes) (human) (UniProt Q6P4I2).
T1 sequence: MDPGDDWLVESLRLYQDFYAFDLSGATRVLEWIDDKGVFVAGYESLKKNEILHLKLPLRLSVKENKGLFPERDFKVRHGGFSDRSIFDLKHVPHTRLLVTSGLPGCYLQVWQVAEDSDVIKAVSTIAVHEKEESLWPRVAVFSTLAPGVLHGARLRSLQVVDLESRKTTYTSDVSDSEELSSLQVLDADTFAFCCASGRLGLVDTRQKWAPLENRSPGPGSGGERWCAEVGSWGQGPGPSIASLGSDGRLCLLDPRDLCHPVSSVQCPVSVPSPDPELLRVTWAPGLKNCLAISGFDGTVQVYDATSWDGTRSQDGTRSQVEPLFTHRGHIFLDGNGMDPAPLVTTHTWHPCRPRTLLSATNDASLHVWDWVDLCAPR
Nature of the assay: co-IP; GFP-IP (anti-GFP beads, 2 h, 4 °C) from lysates of immortalised podocytes stably expressing GFP or GFP-WDR73; lysis buffer 50 mM Tris-HCl pH 7.4, 150 mM NaCl, 1 mM EDTA, 1% Triton X-100; western blot. On the technique in general: Immunoblotting shows a protein as a band on a membrane.

In assay [2] the target is T2, GFP-WDR73 (transiently transfected in HEK293T) (human) (UniProt Q6P4I2).
T2 sequence: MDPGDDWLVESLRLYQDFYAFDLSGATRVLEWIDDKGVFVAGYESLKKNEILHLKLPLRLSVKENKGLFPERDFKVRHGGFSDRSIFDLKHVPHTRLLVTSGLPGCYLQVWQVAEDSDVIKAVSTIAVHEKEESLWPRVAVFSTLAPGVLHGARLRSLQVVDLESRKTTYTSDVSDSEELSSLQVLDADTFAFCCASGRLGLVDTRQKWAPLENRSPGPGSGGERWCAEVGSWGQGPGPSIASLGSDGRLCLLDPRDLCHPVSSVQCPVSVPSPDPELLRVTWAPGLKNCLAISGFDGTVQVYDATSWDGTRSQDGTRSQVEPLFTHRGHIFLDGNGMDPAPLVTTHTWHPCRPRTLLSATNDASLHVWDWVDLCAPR
Description: co-IP; GFP-IP (anti-GFP beads, 2 h, 4 °C) from lysates of HEK293T cells transiently transfected with GFP-tagged constructs; lysis buffer 50 mM Tris-HCl pH 7.4, 150 mM NaCl, 1 mM EDTA, 1% Triton X-100; western blot.

Assay [3] concerns the target GFP-INTS11 (1-390) (UniProt Q5TA45). Described as above.
Assay [4] has as its target GFP-INTS11^p.L509A (UniProt Q5TA45). The description is as above.
In assay [5] the target is GFP-INTS9 (UniProt Q9NV88). The description is as above.
The target of assay [6] is GFP-INTS11 (1-493) (UniProt Q5TA45). The assay is described as above.
The target in assay [7] is GFP-INTS11 (1-450) (UniProt Q5TA45). The description is as above.
The target of assay [8] is GFP-INTS11 wild type (UniProt Q5TA45). The description is as above.
In assay [9] the target is Integrator complex subunit 11 (endogenous, podocytes) (human (endogenous in AB8/13 podocytes)) (UniProt Q5TA45). Description: co-IP; IP of endogenous INTS11 or INTS9 with primary antibody overnight, then Protein-A or Protein-G beads; lysates of podocytes stably expressing GFP or GFP-WDR73, or treated with control or WDR73 siRNA; western blot.

Regarding “Integrator complex subunit 11 (endogenous, podocytes) (from UniProt Q5TA45 1-600)”, in assay [1], the binding result is recorded as “binds”.

In the case of “Integrator complex subunit 9 (endogenous, podocytes) (from UniProt Q9NV88 1-658)”, the binding result in assay [1] is “binds”.

For INTS4 (from UniProt Q96HW7 1-963), in assay [2], the binding result is “no binding”.

B1: WDR73 (endogenous, HEK293T) (protein, UniProt Q6P4I2 1-378)
chain: MDPGDDWLVESLRLYQDFYAFDLSGATRVLEWIDDKGVFVAGYESLKKNEILHLKLPLRLSVKENKGLFPERDFKVRHGGFSDRSIFDLKHVPHTRLLVTSGLPGCYLQVWQVAEDSDVIKAVSTIAVHEKEESLWPRVAVFSTLAPGVLHGARLRSLQVVDLESRKTTYTSDVSDSEELSSLQVLDADTFAFCCASGRLGLVDTRQKWAPLENRSPGPGSGGERWCAEVGSWGQGPGPSIASLGSDGRLCLLDPRDLCHPVSSVQCPVSVPSPDPELLRVTWAPGLKNCLAISGFDGTVQVYDATSWDGTRSQDGTRSQVEPLFTHRGHIFLDGNGMDPAPLVTTHTWHPCRPRTLLSATNDASLHVWDWVDLCAPR
As to B1, the binding entry is recorded as “no binding” in assay [3]; “binds” in assay [4]; “binds” in assay [5]; “binds” in assay [6]; “binds” in [7]; “binds” in assay [8].

B2: GFP-WDR73 full length (stably expressed in podocytes) (protein, UniProt Q6P4I2 1-378)
chain: MDPGDDWLVESLRLYQDFYAFDLSGATRVLEWIDDKGVFVAGYESLKKNEILHLKLPLRLSVKENKGLFPERDFKVRHGGFSDRSIFDLKHVPHTRLLVTSGLPGCYLQVWQVAEDSDVIKAVSTIAVHEKEESLWPRVAVFSTLAPGVLHGARLRSLQVVDLESRKTTYTSDVSDSEELSSLQVLDADTFAFCCASGRLGLVDTRQKWAPLENRSPGPGSGGERWCAEVGSWGQGPGPSIASLGSDGRLCLLDPRDLCHPVSSVQCPVSVPSPDPELLRVTWAPGLKNCLAISGFDGTVQVYDATSWDGTRSQDGTRSQVEPLFTHRGHIFLDGNGMDPAPLVTTHTWHPCRPRTLLSATNDASLHVWDWVDLCAPR
Consider B2, for which the binding entry in assay [9] was “binds”.
